This note sets out measurements from ChEMBL document CHEMBL4888484, “Replenishing the malaria drug discovery pipeline: Screening and hit evaluation of the MMV Hit Generation Library 1 (HGL1) against asexual blood stage Plasmodium falciparum ,using a nano luciferase reporter read-out” (2022).

Structures are written as SMILES. The whole screen tested about 150,000 compounds, of which about 540 (0.36%) showed an effect of 50% or more. The list shows a part of the results.

For the assay, the system named is Plasmodium falciparum. Briefly: Primary screen in NF54 nanoGlo assay, in single point, at 2uM, 72h; a lower Z score goes with more inhibition. To be noted: timepoint 72 hour. The format is functional, Erythrocyte.
As a reminder, the % Inhibition is the drop in the measured response relative to a control, in per cent. With `CCOC(=O)c1ncn2c(N)c(C(=O)Nc3cccc(Cl)c3)nnc12`, the “% Inhibition” value is reported as -9% and the Z score was 1.02.

Regarding `COCCNC(=O)c1cc2cc(NS(=O)(=O)c3ccc(C(C)(C)C)cc3)ccc2n1Cc1cc(C)ccc1C`, the “% Inhibition” value turned out to be 11% and the Z score is reported as -1.36.

In the case of `CCCn1cc(CN2CCC(O)(C(F)(F)F)CC2)cn1`, the “% Inhibition” value is recorded as -8% and the Z score was determined as 1.02.

As to `Fc1ccc(C2(c3nc(C4CC4)no3)CC2)cc1`, the “% Inhibition” value is -14% and the Z score was determined as 2.06.

Take `c1ncc2c(n1)CN(CCCOc1ccc3c(c1)OCO3)CC2`: the “% Inhibition” value was -5% and the Z score was determined as 0.76.

As to `CC(C)c1nc(CCNS(=O)(=O)C2(C)CC2)cs1`, the “% Inhibition” value is given as -5% and the Z score is recorded as 0.61.

With `Cc1cc(-n2nc(C)nc2-c2ccc(C#CC(C)(C)O)o2)ccn1`, the “% Inhibition” value was -16% and the Z score was 2.49.

As to `CC1(C)CC[C@H](CO)N(c2cc(-n3ccnc3)ncn2)C1`, the “% Inhibition” value is -21% and the Z score turned out to be 2.6.

`CC(C)(C)c1nnc2n1CCN(Cc1ccc(S(C)(=O)=O)o1)C2`: the “% Inhibition” value is 1% and the Z score was -0.24.

Turning to `Cc1nn(C)c2nc(-c3cccnc3)nc(N(C)CC[C@H]3CCCCO3)c12`, the “% Inhibition” value was 0% and the Z score was 0.04.

Consider `CO[C@@H](C)C(=O)N1CCC(CNC(=O)c2ccoc2)CC1`, for which the “% Inhibition” value is given as 4% and the Z score is given as -0.83.

`Cc1nn([C@@H](C)C(=O)NC2CCCC2)c2ccccc12`: the “% Inhibition” value is -12% and the Z score was found to be 1.71.

For `O=c1n(Cc2cccc(NS(=O)(=O)c3cn[nH]c3)c2)nc2ccccn12`, the “% Inhibition” value is -4% and the Z score is given as 0.71.

As to `CC(C)c1nccc(CN(C)[C@@H](C)c2ccc3c(c2)OCCO3)n1`, the “% Inhibition” value was -3% and the Z score came to 0.42.

For `O=C(NC[C@]1(OCCO)CCOC1)c1ccc(Cl)s1`, the “% Inhibition” value came to 4% and the Z score was -0.47.

Turning to `Cc1cc(=O)[nH]c(CCNC(=O)[C@@H](N)Cc2c[nH]c3ccccc23)n1`, the “% Inhibition” value is recorded as -3% and the Z score is on record as 0.31.

In the case of `COc1ccc(CN(CC(=O)Nc2ccc(C(N)=O)cc2)S(=O)(=O)c2cccnc2)cc1`, the “% Inhibition” value was 6% and the Z score is given as -0.84.

Turning to `COc1ccc(-c2cn3c(C(=O)N4CCCCC4)csc3n2)cc1F`, the “% Inhibition” value is recorded as -20% and the Z score came out at 2.98.

As for `CO[C@H]1COCC[C@@H]1NC(=O)c1ccc(C#CC(C)(C)O)o1`, the “% Inhibition” value came to 1% and the Z score is -0.19.

Regarding `CCCCN(C)C(=O)NCCc1noc(C(C)C)n1`, the “% Inhibition” value stood at 1% and the Z score was -0.14.

Regarding `Cc1nn(C)c(C)c1CNc1cc(C(C)(C)C)on1`, the “% Inhibition” value is recorded as -7% and the Z score is 0.66.

Take `O=C(O)C1CCN(C(=O)C2CC=CCC2c2nc3ccccc3s2)CC1` (stereo unspecified): the “% Inhibition” value was determined as 0% and the Z score was determined as 0.01.

Turning to `COCCN(Cc1cn2ccc(C)cc2n1)Cc1ccc(C)s1`, the “% Inhibition” value is reported as -9% and the Z score came to 1.55.

Take `Cc1ncsc1C(=O)OC1CCN(CC(F)F)CC1`: the “% Inhibition” value is -12% and the Z score came to 1.47.

With `CNC(=O)[C@@H]1CCCN1C(=O)CNC(=O)c1cccc2c1OCC2`, the “% Inhibition” value is reported as -5% and the Z score is listed as 0.71.

Regarding `CCc1noc(C)c1C(=O)Nc1ccc2c(c1)OCCCO2`, the “% Inhibition” value is -6% and the Z score amounted to 0.93.

Consider `CCc1nc(CNC(=O)N(C)Cc2ccnc(C)c2)no1`, for which the “% Inhibition” value is given as -2% and the Z score is listed as 0.38.

For the compound `Cc1cnn([C@@H](C)CNc2ncnc3c2c(C)nn3C)c1`, the “% Inhibition” value turned out to be 6% and the Z score is -0.73.

Turning to `C[C@@H]1CN(C(=O)c2c[nH]c3cccc(F)c23)C[C@H](C)N1CCO`, the “% Inhibition” value was determined as 1% and the Z score is listed as -0.14.

`CC(NC(=O)N1C[C@@H](CO)[C@H](C)C1)c1ccc(Br)cn1` (stereo partly specified): the “% Inhibition” value is given as -7% and the Z score was found to be 0.86.

`CC[C@H]1CN(S(=O)(=O)c2ccc3c(c2)C(=O)NCC3)c2ccccc2O1`: the “% Inhibition” value is -6% and the Z score was determined as 0.69.

As for `CN(C)c1ccc(NC(=O)c2ccc3c(c2)OCCO3)cn1`, the “% Inhibition” value is on record as -13% and the Z score is 1.15.

Take `O=c1[nH]nc2ccc(S(=O)(=O)N3CCc4ccccc4C3)cn12`: the “% Inhibition” value is given as -15% and the Z score is 1.73.

`O=S(=O)(Cc1ccccc1)N[C@@H]1COc2ccc(Br)cc2C1`: the “% Inhibition” value is -7% and the Z score is given as 0.93.

Take `CC(C)(CO)N1CCN(C(=O)c2ccc(CN3CCCC3)o2)CC1`: the “% Inhibition” value is recorded as -23% and the Z score amounted to 3.56.

In the case of `O=C(O)c1cccc(NC[C@H]2CN(Cc3ccccc3)CC23CCOCC3)n1`, the “% Inhibition” value was -21% and the Z score is listed as 3.9.

In the case of `Cc1nc(CNC(=O)c2cccc(S(=O)(=O)N3CCOCC3)c2)cs1`, the “% Inhibition” value is -6% and the Z score was 0.89.

As to `C[C@H]1CN(C(=O)NCCS(=O)(=O)CCc2ccccc2)CCO1`, the “% Inhibition” value was -14% and the Z score was found to be 1.38.

`CC(C)=CCC[C@H](C)NCC(=O)N1CCOCC1`: the “% Inhibition” value is listed as -1% and the Z score came out at 0.14.

Consider `COc1ccc(/N=C(\NC[C@H]2CCCO2)NC(=O)c2ccc(Cl)cc2)cc1OC`, for which the “% Inhibition” value was -7% and the Z score turned out to be 1.19.

On to `Cc1ccccc1N1CCN(C(=O)CCC2CCN(c3cc(NC4CC4)ncn3)CC2)CC1`, for which the “% Inhibition” value is 41% and the Z score is reported as -4.61.

Consider `CN1CCN(Cc2ccc(S(C)(=O)=O)cc2)C(C)(C)C1`, for which the “% Inhibition” value is given as -5% and the Z score is 0.91.

`CC1(CO)CCCC1NC1Cc2ccccc2C1` (stereo unspecified): the “% Inhibition” value was -11% and the Z score was found to be 1.12.
